Source: PubChem BioAssay AID651742 (Broad Institute, 2012)
Among all 5,600 compounds or so, about 780 (14%) were called active. The shares of active, inactive and inconclusive entries below differ from those in the screen.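 Rule for the calls: active = mean signal decrease across replicates above about 35% based on untreated-well scatter, with enough replicates individually passing (limit read from the data); inconclusive = no rule stated though some were filed; inactive = the rest.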

Assay: NIH3T3 cell viability loss – cherry-pick, single point, cytotoxicity control for T. cruzi proliferation inhibitor project, confirmation (AID 651742);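 note: 0% = median of neutral control wells and 100% = median of positive control wells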
Conditions: NIH/3T3 viability, CellTiter-Glo ATP luminescence, 90 h; at 8.35 µM; hits give high values

Row | Compound | cytotoxicity (signal decrease)
1 | COc1ccccc1C#Cc1ccc([C@H]2[C@@H](CO)N3CCCCN(C(=O)C4CCCC4)C[C@@H]23)cc1 | inconclusive: 34.3%
2 | O=S(=O)(Cc1ccccc1)N1CCCCN2[C@H](CO)[C@@H](c3ccc(-c4ccccc4)cc3)[C@@H]2C1 | inconclusive: 34.1%
3 | COc1ccc(NC(=O)Nc2ccc3c(c2)[C@@H]2C[C@H](CC(=O)NCCc4ccccc4)O[C@H](CO)[C@@H]2O3)cc1 | inactive: -28.3%
4 | C[C@H](CO)N1C[C@H](C)[C@H](CN(C)S(=O)(=O)c2ccccc2F)Oc2cc(-c3ccccc3)ccc2S1(=O)=O | inconclusive: 36.4%
5 | COc1ccc(S(=O)(=O)N(C)C[C@H]2Oc3cc(C#CC4CC4)ccc3S(=O)(=O)N([C@@H](C)CO)C[C@@H]2C)cc1 | active: 52.8%
6 | CN(C)CC#Cc1ccc([C@@H]2[C@H]3CN(C(=O)Nc4cc(F)ccc4F)CCCCN3[C@H]2CO)cc1 | inconclusive: 35.1%
7 | COCC#Cc1ccc2c(c1)O[C@H](CN(C)CC1CCCC1)[C@@H](C)CN([C@H](C)CO)S2(=O)=O | inactive: 23.4%
8 | C[C@@H]1CCCCO[C@H](CN(C)S(=O)(=O)c2cccs2)[C@H](C)CN([C@@H](C)CO)C(=O)c2cc(NC(=O)Nc3ccc(C(F)(F)F)cc3)ccc2O1 | inactive: 8.56%
9 | CCCC#Cc1ccc2c(c1)O[C@H](CN(C)Cc1ccncc1)[C@H](C)CN([C@@H](C)CO)S2(=O)=O | inconclusive: 34.3%
10 | C[C@@H]1CN([C@@H](C)CO)C(=O)Cc2cc(NC(=O)C3CCCCC3)ccc2O[C@@H]1CN(C)CC1CC1 | inactive: 3.28%
11 | C[C@@H]1CN([C@@H](C)CO)S(=O)(=O)c2ccc(/C=C/c3ccccc3)cc2O[C@@H]1CN(C)Cc1cccnc1 | active: 69.6%
12 | O=C(c1ccc(F)cc1)N1CCCCN2[C@H](C1)[C@@H](c1ccc(-c3ccc(F)cc3)cc1)[C@@H]2CO | active: 42.5%
13 | CNC[C@H]1Oc2cc(C#Cc3ccc(OC)cc3)ccc2S(=O)(=O)N([C@H](C)CO)C[C@@H]1C | active: 38.6%
14 | CCCN(C)C[C@H]1OCCCC[C@@H](C)Oc2ccc(NC(=O)C3CCCCC3)cc2C(=O)N([C@@H](C)CO)C[C@H]1C | inactive: 4.02%
15 | Cc1cccc(-c2ccc([C@@H]3[C@H]4CN(CCC(F)(F)F)CCCCN4[C@H]3CO)cc2)c1 | active: 41.3%
16 | C[C@@H]1CN([C@@H](C)CO)S(=O)(=O)c2ccc(-c3ccccc3)cc2O[C@H]1CN(C)C(=O)C1CC1 | active: 38.3%
17 | C[C@H](CO)N1C[C@H](C)[C@@H](CN(C)Cc2ccc(Oc3ccccc3)cc2)Oc2ccc(NC(=O)Nc3cccc4ccccc34)cc2C1=O | inconclusive: 37.3%
18 | C[C@@H]1CN([C@@H](C)CO)C(=O)c2cc(NC(=O)Nc3ccc(C(F)(F)F)cc3)ccc2O[C@H]1CN(C)S(=O)(=O)c1cccs1 | inconclusive: 35.9%
19 | Cc1ccccc1S(=O)(=O)N1CC[C@@H]2[C@@H](CO)Nc3ccc(-c4ccccc4F)cc3[C@@H]21 | active: 39.4%
20 | CCCC#Cc1ccc([C@H]2[C@H](CO)N3CCCCN(S(=O)(=O)c4ccccc4C)C[C@@H]23)cc1 | inconclusive: 48.4%

Row | Compound | cytotoxicity (signal decrease)
21 | C[C@@H]1CCCCO[C@@H](CN(C)C(=O)c2ccccc2)[C@H](C)CN([C@@H](C)CO)C(=O)c2cc(NC(=O)Nc3ccc(C(F)(F)F)cc3)ccc2O1 | inactive: -7.84%
22 | Cc1ccc(S(=O)(=O)Nc2ccc3c(c2)C(=O)N([C@H](C)CO)C[C@@H](C)[C@@H](CN(C)CC2CCCCC2)OCCCC[C@@H](C)O3)cc1 | active: 46.5%
23 | CN(C)C(=O)c1cccc(-c2ccc([C@@H]3[C@H](C#N)N(C(=O)C4CCC4)[C@H]3CO)cc2)c1 | inactive: 16%
24 | CCCN(C)C[C@@H]1Oc2cc(C#Cc3ccccc3)ccc2S(=O)(=O)N([C@@H](C)CO)C[C@@H]1C | inactive: 4.03%
25 | CC(C)CC#Cc1ccc2c(c1)O[C@H](CN(C)Cc1ccncc1)[C@@H](C)CN([C@@H](C)CO)S2(=O)=O | inconclusive: 35.3%
26 | CC(C)CC#Cc1cnc2c(c1)C(=O)N([C@@H](C)CO)C[C@@H](C)[C@@H](CN(C)Cc1ccccc1F)O2 | inconclusive: 34.1%
27 | COc1cccc(-c2ccc3c(c2)O[C@H](CN(C)Cc2cccnc2)[C@@H](C)CN([C@@H](C)CO)S3(=O)=O)c1 | inconclusive: 39.6%
28 | C[C@H]1CN([C@@H](C)CO)S(=O)(=O)c2ccc(C#Cc3ccc(F)cc3)cc2O[C@@H]1CN(C)S(C)(=O)=O | inconclusive: 38.1%
29 | CN1CCCCN2[C@H](CO)[C@H](c3ccc(-c4cccnc4)cc3)[C@@H]2C1 | inactive: 2.02%
30 | Cc1ccc(-c2ccc3c(c2)O[C@H](CN(C)Cc2cccnc2)[C@@H](C)CN([C@H](C)CO)S3(=O)=O)cc1 | active: 79.7%
31 | C[C@H]1CN([C@@H](C)CO)S(=O)(=O)c2ccc(-c3ccccc3)cc2O[C@@H]1CN(C)Cc1cccc(F)c1 | inconclusive: 47.4%
32 | C[C@H]1CN([C@@H](C)CO)C(=O)c2c(c3ccccc3n2C)-c2ccccc2CO[C@H]1CN(C)S(=O)(=O)c1ccccc1C#N | inconclusive: 40.4%
33 | COc1cccc(S(=O)(=O)N2CCCCN3[C@@H](CO)[C@H](c4ccc(-c5cccnc5)cc4)[C@@H]3C2)c1 | inconclusive: 39.1%
34 | CC(C)C#Cc1ccc([C@@H]2[C@@H](CO)N3CCCCN(S(=O)(=O)Cc4ccccc4)C[C@@H]23)cc1 | active: 37.1%
35 | CCc1cnc(N2[C@H](C#N)[C@@H](c3ccc(C#Cc4ccccc4F)cc3)[C@@H]2CO)s1 | inactive: -25.4%
36 | COc1ccc(S(=O)(=O)N(C)C[C@@H]2Oc3cc(-c4ccccc4OC)ccc3S(=O)(=O)N([C@@H](C)CO)C[C@H]2C)cc1 | inconclusive: 37%
37 | N#Cc1cccc(-c2ccc([C@@H]3[C@H](CO)N4CCCCN(C(=O)Nc5ccccc5)C[C@@H]34)cc2)c1 | active: 35.8%
38 | COc1ccc(NC(=O)N(C)C[C@@H]2Oc3cc(-c4ccc(C)cc4)ccc3S(=O)(=O)N([C@@H](C)CO)C[C@@H]2C)cc1 | inconclusive: 34.5%
39 | Cc1ccc(S(=O)(=O)N(C)C[C@@H]2OCCCC[C@H](C)Oc3ccc(NS(=O)(=O)c4cccs4)cc3C(=O)N([C@H](C)CO)C[C@@H]2C)cc1 | inactive: -25.1%
40 | Cc1ccccc1S(=O)(=O)N1CC[C@@H]2[C@H](CO)Nc3ccc(-c4ccc(C#N)cc4)cc3[C@@H]21 | inconclusive: 39.7%

Row | Compound | cytotoxicity (signal decrease)
41 | CNC[C@@H]1Oc2cc(C#Cc3ccccn3)ccc2S(=O)(=O)N([C@H](C)CO)C[C@H]1C | inactive: -6.99%
42 | CN1C(=O)c2cc(NC(=O)c3ccc(C(F)(F)F)cc3)ccc2OC[C@@H]2O[C@@H](CC(=O)NC3Cc4ccccc4C3)CC[C@H]21 | inconclusive: 34.5%
43 | COc1ccc(S(=O)(=O)N(C)C[C@H]2OCCCC[C@@H](C)Oc3ccc(NS(=O)(=O)c4ccccc4)cc3C(=O)N([C@@H](C)CO)C[C@H]2C)cc1 | inactive: -6.46%
44 | C[C@@H]1CCCCO[C@@H](CN(C)S(=O)(=O)c2ccc(F)cc2)[C@@H](C)CN([C@@H](C)CO)C(=O)c2cc(NS(=O)(=O)c3ccc(Cl)cc3)ccc2O1 | inactive: 3.13%
45 | C[C@@H]1CN([C@@H](C)CO)C(=O)c2cc(NS(C)(=O)=O)ccc2O[C@@H](C)CCCCO[C@H]1CN(C)S(=O)(=O)c1cn(C)cn1 | inactive: 7.6%
46 | OC[C@H]1[C@H](c2ccc(C#Cc3ccccc3)cc2)[C@@H]2CN(Cc3cncnc3)CCCCN12 | active: 44.5%
47 | COc1ccccc1-c1ccc2c(c1)O[C@@H](CN(C)S(=O)(=O)c1ccc(F)cc1)[C@@H](C)CN([C@H](C)CO)S2(=O)=O | inconclusive: 42.8%
48 | CC(C)C#Cc1ccc([C@@H]2[C@@H](CO)N3CCCCN(CC4CC4)C[C@@H]23)cc1 | inconclusive: 34.1%
49 | O=C(C[C@H]1CC[C@H]2[C@@H](COC[C@H](O)CN2C(=O)Nc2ccc(Cl)c(Cl)c2)O1)NCc1ccc(Cl)c(Cl)c1 | active: 40.6%
50 | COCC#Cc1ccc2c(c1)O[C@@H](CN(C)CC1CCCCC1)[C@H](C)CN([C@@H](C)CO)S2(=O)=O | inconclusive: 41.9%
51 | Cc1ccc(-c2ccc3c(c2)O[C@H](CN(C)Cc2ccncc2)[C@@H](C)CN([C@H](C)CO)S3(=O)=O)cc1 | active: 75.5%
52 | C[C@@H]1CN([C@H](C)CO)S(=O)(=O)c2ccc(C#Cc3ccc(F)cc3)cc2O[C@H]1CN(C)S(C)(=O)=O | inconclusive: 37.8%
53 | COc1ccc(NC(=O)Nc2ccc3c(c2)C(=O)N([C@@H](C)CO)C[C@H](C)[C@H](CN(C)C)OCCCC[C@H](C)O3)cc1 | inactive: -10.3%
54 | CC(C)CC#Cc1ccc2c(c1)O[C@H](CN(C)Cc1ccccc1)[C@@H](C)CN([C@H](C)CO)S2(=O)=O | inactive: -3.3%
55 | COc1ccc(C#Cc2ccc([C@H]3[C@@H](CO)N4CCCCN(C(=O)Nc5ccccc5F)C[C@@H]34)cc2)cc1 | inconclusive: 35.3%
56 | OC[C@H]1[C@H](c2ccc(/C=C/c3ccccc3)cc2)[C@@H]2CN(Cc3ccncc3)CCCCN12 | inconclusive: 34.3%
57 | C[C@@H]1CCCCO[C@H](CN(C)Cc2ccc3c(c2)OCO3)[C@H](C)CN([C@H](C)CO)C(=O)c2cc(NC(=O)Nc3cccc4ccccc34)ccc2O1 | inconclusive: 36.1%
58 | C[C@@H]1CN([C@H](C)CO)C(=O)c2cc(C#CCN(C)C)cnc2O[C@H]1CN(C)Cc1ccc(-c2ccccc2)cc1 | inconclusive: 37.6%
